A short description of assay [1]: ATG_ERE_CIS: Attagene CIS-FACTORIAL HepG2 Assay for Estrogen Response Element (ERE) (AID 2282940; active = hit-call score of the fitted dose curve at least 0.9, where 1 is the maximum; inactive = score below 0.9). As to conditions: HepG2 ERE cis-reporter, Attagene RNA transcript; actives raise or lower the signal. The method, boiled down: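 Readout: reporter mRNA induction by RT-PCR, FAM-labelled primer extension, HpaI digestion and capillary electrophoresis, 24 h after dosing transfected HepG2 cells. Endogenous transcription factors act on cis-element-regulated reporters. Gain or loss fitted against DMSO.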

For assay [2], the target named is rat Mineralocorticoid Receptor (MR), Nr3c2 (gene 25672) (UniProt P22199). Briefly: NVS_NR_rMR: NovaScreen (NVS) Nuclear Receptor Binding Assay for rat Mineralocorticoid Receptor (MR) (AID 2283355). The method, boiled down: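 Single-concentration duplicate screen (25 uM) of radioligand binding in adrenalectomized rat brain supernatant; scintillation detection 24 h after dosing. Positive and negative controls ran on each plate, and confirmed actives went to concentration-response.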

The target in assay [3] is Glucocorticoid receptor (Homo sapiens) (UniProt P04150). In words: NVS_NR_hGR: NovaScreen (NVS) Nuclear Receptor Binding Assay for human Glucocorticoid Receptor (GR) (AID 2283363).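 Note: activity is loss of specific radioligand binding signal relative to DMSO.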 In a few lines:
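Single-readout cell-free binding: radioligand plus extracted receptor, 16-hour dosing, filter radiodetection; 25 uM duplicate primary, concentration series secondary.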

Assay [4] in a line: ACEA_ER_80hr: ACEA Biosciences xCELLigence Real-Time Cell Analysis on Estrogen Receptor Agonism for Proliferation (AID 2282667). As to conditions: T47D proliferation, impedance (xCELLigence), 80 h. The method, boiled down:
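Real-time impedance growth kinetics of human T-47D breast cells read 80 h after dosing, gain-of-signal fitted relative to DMSO. Compounds: 1:4 serial series, top final concentration 100 uM, n = 2.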

Assay [5] has as its target Retinoic acid receptor alpha (Homo sapiens) (UniProt P10276). Briefly: ATG_DR5_RAR_CIS: Attagene CIS-FACTORIAL HepG2 Assay for human Retinoic Acid Receptor Alpha (RARE), DR5 submotif (AID 2282934; active = hit-call score of the fitted dose curve at least 0.9, where 1 is the maximum; inactive = score below 0.9;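 note: reporter responds to endogenous RAR alpha beta and gamma in HepG2 not RARA alone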). As to conditions: HepG2 Attagene cis-factorial RARE DR5 reporter, mRNA; actives raise or lower the signal.
Assay [6] can be described thus: ATG_PBREM_CIS: Attagene CIS-FACTORIAL HepG2 Assay for human Phenobarbital-responsive Enhancer Module (PBREM) (AID 2282955; active = hit-call score of the fitted dose curve at least 0.9, where 1 is the maximum; inactive = score below 0.9). The conditions noted are these: HepG2 PBREM cis-reporter, Attagene multiplexed transcription; actives raise or lower the signal. In a few lines: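 Cells were transfected with cis-element reporter units and treated for 24 h, after which RNA was extracted and reporter transcripts measured by RT-PCR and capillary electrophoresis.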

A short description of assay [7]: ATG_PXRE_CIS: Attagene CIS-FACTORIAL HepG2 Assay for human Pregnane X Receptor Element (PXRE) (AID 2282957; active = hit-call score of the fitted dose curve at least 0.9, where 1 is the maximum; inactive = score below 0.9). As to conditions: HepG2 Attagene CIS-FACTORIAL PXRE reporter, mRNA; actives raise or lower the signal. The method, boiled down:
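Reporter transcripts under endogenous PXR-responsive cis-regulation quantified from total RNA of transfected HepG2 cells 24 h post-dosing, via RT-PCR with fluorescent primer extension and capillary electrophoresis. Gain or loss of signal fitted against DMSO baseline.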

The nature of assay [8]: ATG_SREBP_CIS: Attagene CIS-FACTORIAL HepG2 Assay for human Sterol Regulatory Element Binding (SREBP) (AID 2282962; active = hit-call score of the fitted dose curve at least 0.9, where 1 is the maximum; inactive = score below 0.9). As to conditions: HepG2 Attagene cis-factorial SREBP reporter, mRNA; actives raise or lower the signal. The method, boiled down: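 Endogenous factor activity is measured in HepG2 through multiplexed reporter units under cis-element control. Following a 24 h incubation, reporter transcripts are reverse-transcribed, PCR-amplified and sized by capillary electrophoresis; activity is fitted in both directions relative to DMSO.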

Assay [9] can be described thus: ATG_TCF_b_cat_CIS: Attagene CIS-FACTORIAL HepG2 Assay for human T-Cell-Factor with beta-catenin (TCF/b-cat) (AID 2282965; active = hit-call score of the fitted dose curve at least 0.9, where 1 is the maximum; inactive = score below 0.9). As to conditions: HepG2 TCF/beta-catenin cis-reporter transcription, actives raise or lower the signal. The method, boiled down:
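Using capillary electrophoresis as the read-out, labelled reporter cDNA fragments from transiently transfected HepG2 were sized and quantified. Exposure lasted 24 hours; activity in either direction was referenced to DMSO.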

Assay [10] concerns the target X-box-binding protein 1 (Homo sapiens) (UniProt P17861). In words: ATG_Xbp1_CIS: Attagene CIS-FACTORIAL HepG2 Assay for human X-box Binding Protein 1 (XBP1) (AID 2282972; active = hit-call score of the fitted dose curve at least 0.9, where 1 is the maximum; inactive = score below 0.9). The conditions noted are these: HepG2 XBP1 cis-element reporter, Attagene multiplex; actives raise or lower the signal. In a few lines:
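Multiplexed cis-reporter readout in transfected HepG2 liver cells. Exposure lasted 24 hours. Activity in either direction was fitted against DMSO as negative control and baseline.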

Assay [11] can be described thus: ATG_NRF2_ARE_CIS: Attagene CIS-FACTORIAL HepG2 Assay for human Nuclear Factor Erythroid 2 Related Factor 2 (NFR2) response to Antioxidant Response Elements (ARE) (AID 2282992; active = hit-call score of the fitted dose curve at least 0.9, where 1 is the maximum; inactive = score below 0.9;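 note: reporter mRNA level measured by RT-PCR and capillary electrophoresis fluorescence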). The conditions noted are these: HepG2 Attagene ARE/NRF2 reporter, transcription factor activity; actives raise or lower the signal. The method, boiled down:
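Endogenous transcription factor activity in human liver HepG2 cells is tracked via a cis-element-driven reporter within a multiplexed set. mRNA induction is read by RT-PCR and capillary electrophoresis after 24 h, with DMSO as baseline.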

The target in assay [12] is Nuclear receptor subfamily 1 group I member 2 (Homo sapiens) (UniProt O75469). Briefly: ATG_PXR_TRANS: Attagene TRANS-FACTORIAL HepG2 Assay for human Pregnane X Receptor (PXR) (AID 2283008). In a few lines: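 HepG2 transfected (FuGene 6) with GAL4-UAS reporter units + PXR-Gal4 chimera; dosed 24 h. Total RNA → oligo(dT) RT → PCR → 6-FAM primer extension → HpaI cut → CE. Gain-of-signal vs DMSO.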

Assay [13] deals with guinea pig Leukotriene B4 Receptor (LTB4), gene 100379538. In words: NVS_GPCR_gLTB4: NovaScreen (NVS) G Protein-Coupled Receptor Assay for guinea pig Leukotriene B4 Receptor (LTB4) (AID 2283247). The method, boiled down:
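Membranes from guinea pig spleen incubated 2 h with radioligand and compound; bound counts measured by filtration and scintillation. Screened first at 25 uM in duplicate, then actives titrated to a 50 uM top concentration relative to DMSO.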

Assay [14] deals with human Serotonin, 5-Hydroxytryptamine Receptor 6 (5HT6), HTR6 (gene 3362) (UniProt P50406). In words: NVS_GPCR_h5HT6: NovaScreen (NVS) G Protein-Coupled Receptor Assay for human Serotonin, 5-Hydroxytryptamine Receptor 6 (5HT6) (AID 2283253). The method, boiled down:
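Filter scintillation counting of radioligand displacement from HEK293-expressed 5HT6, 1 hour post-dose, with loss of signal relative to DMSO. Single 25 uM duplicates first, with concentration series for confirmation.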

The target of assay [15] is mouse Estrogen Receptor alpha (Era), Esr1 (gene 13982) (UniProt P19785). Briefly: NVS_NR_mERa: NovaScreen (NVS) Nuclear Receptor Binding Assay for mouse Estrogen Receptor alpha (Era) (AID 2283378).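 Note: hit means loss of bound radioligand signal relative to DMSO.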 The method, boiled down: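 Filter radiodetection of radioligand displacement from extracted receptor protein, measured 18 h post-dose. Single 25 uM concentration in duplicate initially, with concentration-series follow-up. Binding loss fitted relative to DMSO.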

The test system of assay [16] is Thyroperoxidase (TPO), gene 54314. In words: CCTE_Simmons_AUR_rTPO: CCTE's Amplex UltraRed Assay for Thyroperoxidase (TPO) Inhibition, Simmons Lab (AID 2283662).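 Note: potency for loss of signal meaning inhibition of peroxidase activity.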 In a few lines: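 Rat thyroid microsomes (5 ug protein) with 25 uM Amplex UltraRed and 300 uM H2O2 in 200 mM phosphate buffer, 30 min at 37C in dark; fluorescence 544/590 nm. Eight concentrations, 5 nM–87.5 uM final, 0.5% DMSO, triplicate biological replicates.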

Assay [17] can be described thus: CCTE_Simmons_CellTiterGLO_HEK293T: Viability Assessment in CCTE's Assays for Thyroperoxidase (TPO) Inhibition, Simmons Lab (AID 2283665).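 Note: cells exposed to compound for 24 h before readout; actives reduce ATP signal below DMSO vehicle meaning cytotoxicity.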 The method, boiled down:
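Luminescent ATP readout (CellTiter-Glo, 20 min at room temperature) after 24 hr exposure of HEK293T cells to 5 nM–87.5 uM final compound; signal loss relative to DMSO vehicle indicated cytotoxicity; dichlone titrated as positive control.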
For orientation: ATP-based viability assays read luminescence as a measure of living cells.

Assay [18] concerns the target Luciferin 4-monooxygenase (Photinus pyralis) (UniProt P08659). In words: CCTE_Simmons_QuantiLum_inhib_2: CCTE's Firefly Luciferase Inhibition Assay, Simmons Lab (AID 2283767).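 Note: potency for inhibitors that lower luciferase luminescence relative to DMSO.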 The method, boiled down: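 Cell-free QuantiLum luciferase, 5 ng/well; compounds 5 nM–87.5 uM final, 8 conc, 0.5% DMSO; 30 min, 37C, dark. Detection reagent (150 uM D-luciferin, 147 uM dATP, CoA, DTT, pH 7.8 final) injected per well, kinetic luminescence. Triplicate biological replicates.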

The target in assay [19] is Estrogen receptor (Homo sapiens) (UniProt P03372). Briefly: ATG_ERa_TRANS: Attagene TRANS-FACTORIAL HepG2 Assay for human Estrogen Receptor alpha (ERa) (AID 2282970). The conditions noted are these: HepG2 Attagene TRANS ERa GAL4 reporter, mRNA. The method, boiled down: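 Reporter transcripts were measured 24 h after dosing by RT-PCR with fluorescent primer extension and capillary electrophoresis. The system is transiently transfected HepG2 expressing exogenous NR-Gal4 chimeras driving GAL4-UAS reporters; DMSO is the baseline.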

Not every entry of the source has a single result; some have several. The other results are left out here. The source may hold further records. Results that share an entry are repeats across runs, samples, wells, individuals or studies. Inconclusive results are not listed. Rule for the calls, unless noted: active = hit-call score of the fitted dose curve at least 0.9, where 1 is the maximum; inconclusive = response in the unintended direction; inactive = score below 0.9. Some structures have more than one record in an assay (separate samples or runs), and their calls can disagree. Counts like (3×) give the number of equal values in this list.

Sequence of UniProt P22199 (P22199 whole entry, looked up): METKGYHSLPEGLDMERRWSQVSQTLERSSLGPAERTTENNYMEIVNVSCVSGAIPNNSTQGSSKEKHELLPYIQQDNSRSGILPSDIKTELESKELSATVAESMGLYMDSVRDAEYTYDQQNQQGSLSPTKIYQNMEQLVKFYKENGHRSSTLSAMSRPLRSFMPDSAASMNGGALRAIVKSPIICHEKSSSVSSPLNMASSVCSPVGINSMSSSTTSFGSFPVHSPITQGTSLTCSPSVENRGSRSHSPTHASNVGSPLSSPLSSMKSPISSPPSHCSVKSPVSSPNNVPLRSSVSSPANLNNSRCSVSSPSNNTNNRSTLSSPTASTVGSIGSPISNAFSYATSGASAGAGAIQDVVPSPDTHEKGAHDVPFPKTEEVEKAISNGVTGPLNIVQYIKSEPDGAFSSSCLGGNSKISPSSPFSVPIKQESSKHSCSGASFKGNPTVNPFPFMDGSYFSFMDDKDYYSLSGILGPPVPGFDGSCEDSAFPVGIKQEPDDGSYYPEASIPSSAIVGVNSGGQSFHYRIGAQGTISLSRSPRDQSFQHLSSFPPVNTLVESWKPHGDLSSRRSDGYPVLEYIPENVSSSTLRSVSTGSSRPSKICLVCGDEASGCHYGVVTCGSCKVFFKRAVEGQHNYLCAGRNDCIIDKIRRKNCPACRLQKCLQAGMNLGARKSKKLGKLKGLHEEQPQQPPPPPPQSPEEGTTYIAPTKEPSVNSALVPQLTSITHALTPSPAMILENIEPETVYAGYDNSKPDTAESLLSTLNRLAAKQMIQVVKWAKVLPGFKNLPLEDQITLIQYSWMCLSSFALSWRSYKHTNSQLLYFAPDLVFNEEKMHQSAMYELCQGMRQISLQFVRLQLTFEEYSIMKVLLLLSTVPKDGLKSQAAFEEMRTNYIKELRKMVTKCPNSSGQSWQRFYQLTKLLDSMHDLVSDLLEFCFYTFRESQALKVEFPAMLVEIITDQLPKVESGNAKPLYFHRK
Sequence of UniProt P04150 (P04150 whole entry, looked up): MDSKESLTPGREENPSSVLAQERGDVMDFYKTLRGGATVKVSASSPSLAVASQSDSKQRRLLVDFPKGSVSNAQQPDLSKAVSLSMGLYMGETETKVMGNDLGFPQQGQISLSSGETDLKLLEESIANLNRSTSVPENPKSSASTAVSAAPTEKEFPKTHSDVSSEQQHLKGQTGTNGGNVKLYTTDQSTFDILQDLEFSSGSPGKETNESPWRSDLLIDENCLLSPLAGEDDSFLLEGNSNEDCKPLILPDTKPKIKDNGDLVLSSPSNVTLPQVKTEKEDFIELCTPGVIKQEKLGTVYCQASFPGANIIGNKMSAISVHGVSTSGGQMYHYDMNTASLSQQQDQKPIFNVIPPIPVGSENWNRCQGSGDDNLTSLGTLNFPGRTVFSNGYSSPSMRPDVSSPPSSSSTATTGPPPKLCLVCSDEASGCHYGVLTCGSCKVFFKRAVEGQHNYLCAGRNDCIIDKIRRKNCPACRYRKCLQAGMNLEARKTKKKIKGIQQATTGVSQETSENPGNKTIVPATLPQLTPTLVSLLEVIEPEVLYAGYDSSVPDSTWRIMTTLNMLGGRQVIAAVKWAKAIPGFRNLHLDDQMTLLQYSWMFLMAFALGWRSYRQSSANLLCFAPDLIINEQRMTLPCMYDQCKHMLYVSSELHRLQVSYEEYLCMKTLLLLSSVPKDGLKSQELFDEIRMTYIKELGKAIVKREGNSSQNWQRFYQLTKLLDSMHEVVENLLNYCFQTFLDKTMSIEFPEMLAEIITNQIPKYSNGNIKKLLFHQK
Sequence of UniProt P08659 (P08659 whole entry, looked up): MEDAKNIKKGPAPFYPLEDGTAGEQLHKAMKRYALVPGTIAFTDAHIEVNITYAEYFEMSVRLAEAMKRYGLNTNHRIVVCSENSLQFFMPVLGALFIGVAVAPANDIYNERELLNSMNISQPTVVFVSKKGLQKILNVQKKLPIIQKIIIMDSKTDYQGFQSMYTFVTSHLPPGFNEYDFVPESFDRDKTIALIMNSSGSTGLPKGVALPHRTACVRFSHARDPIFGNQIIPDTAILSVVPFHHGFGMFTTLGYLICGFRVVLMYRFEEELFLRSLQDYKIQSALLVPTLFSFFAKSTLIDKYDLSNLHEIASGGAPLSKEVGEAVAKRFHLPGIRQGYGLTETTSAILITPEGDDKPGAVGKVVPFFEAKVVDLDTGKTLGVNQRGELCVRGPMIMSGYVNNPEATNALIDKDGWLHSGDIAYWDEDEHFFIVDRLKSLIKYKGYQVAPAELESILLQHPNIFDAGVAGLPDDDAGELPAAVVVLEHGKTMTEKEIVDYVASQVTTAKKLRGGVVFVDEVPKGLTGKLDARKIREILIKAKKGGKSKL
Sequence of UniProt P50406 (P50406 whole entry, looked up): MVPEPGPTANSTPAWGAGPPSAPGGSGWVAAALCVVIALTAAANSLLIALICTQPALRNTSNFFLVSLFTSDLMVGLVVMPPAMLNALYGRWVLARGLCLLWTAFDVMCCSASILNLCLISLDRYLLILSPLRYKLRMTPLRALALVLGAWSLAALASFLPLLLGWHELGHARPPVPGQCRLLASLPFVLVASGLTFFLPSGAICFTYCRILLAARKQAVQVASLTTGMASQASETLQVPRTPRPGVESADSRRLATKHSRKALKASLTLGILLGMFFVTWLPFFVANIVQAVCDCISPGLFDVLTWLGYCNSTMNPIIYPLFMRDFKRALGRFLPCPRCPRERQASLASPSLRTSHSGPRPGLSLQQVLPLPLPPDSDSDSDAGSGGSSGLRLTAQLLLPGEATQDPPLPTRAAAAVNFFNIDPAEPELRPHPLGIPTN
Sequence of UniProt O75469 (O75469 whole entry, looked up, the tested form may be a part): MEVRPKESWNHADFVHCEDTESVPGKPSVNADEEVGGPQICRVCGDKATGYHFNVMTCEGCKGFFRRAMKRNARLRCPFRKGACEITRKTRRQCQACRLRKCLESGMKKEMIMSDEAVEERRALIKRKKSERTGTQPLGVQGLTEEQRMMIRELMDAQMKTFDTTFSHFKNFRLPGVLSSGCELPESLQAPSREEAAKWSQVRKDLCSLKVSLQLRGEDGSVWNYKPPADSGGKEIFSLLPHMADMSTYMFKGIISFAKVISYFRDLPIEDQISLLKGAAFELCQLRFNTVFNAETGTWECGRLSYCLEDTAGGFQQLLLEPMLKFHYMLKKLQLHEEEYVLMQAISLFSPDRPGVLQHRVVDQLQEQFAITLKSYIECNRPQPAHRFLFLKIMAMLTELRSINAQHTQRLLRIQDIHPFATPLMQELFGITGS
Sequence of UniProt P19785 (P19785 whole entry, looked up): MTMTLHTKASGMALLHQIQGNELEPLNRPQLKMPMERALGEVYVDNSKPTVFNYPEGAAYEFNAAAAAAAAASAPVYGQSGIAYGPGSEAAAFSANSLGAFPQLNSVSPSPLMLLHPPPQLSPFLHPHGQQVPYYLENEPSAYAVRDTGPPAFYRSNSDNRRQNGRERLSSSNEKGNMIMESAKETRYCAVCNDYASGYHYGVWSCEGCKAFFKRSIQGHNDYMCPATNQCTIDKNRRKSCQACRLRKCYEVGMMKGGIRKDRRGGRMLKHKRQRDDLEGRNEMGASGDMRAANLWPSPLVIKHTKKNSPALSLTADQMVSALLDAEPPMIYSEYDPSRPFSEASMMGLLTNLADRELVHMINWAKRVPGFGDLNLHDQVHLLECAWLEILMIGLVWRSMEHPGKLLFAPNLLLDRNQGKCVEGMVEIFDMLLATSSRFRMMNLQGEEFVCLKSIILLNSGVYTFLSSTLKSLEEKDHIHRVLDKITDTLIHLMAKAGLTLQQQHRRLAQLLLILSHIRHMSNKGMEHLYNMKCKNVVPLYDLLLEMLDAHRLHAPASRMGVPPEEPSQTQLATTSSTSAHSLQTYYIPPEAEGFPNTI
Sequence of UniProt P10276 (P10276 whole entry, looked up): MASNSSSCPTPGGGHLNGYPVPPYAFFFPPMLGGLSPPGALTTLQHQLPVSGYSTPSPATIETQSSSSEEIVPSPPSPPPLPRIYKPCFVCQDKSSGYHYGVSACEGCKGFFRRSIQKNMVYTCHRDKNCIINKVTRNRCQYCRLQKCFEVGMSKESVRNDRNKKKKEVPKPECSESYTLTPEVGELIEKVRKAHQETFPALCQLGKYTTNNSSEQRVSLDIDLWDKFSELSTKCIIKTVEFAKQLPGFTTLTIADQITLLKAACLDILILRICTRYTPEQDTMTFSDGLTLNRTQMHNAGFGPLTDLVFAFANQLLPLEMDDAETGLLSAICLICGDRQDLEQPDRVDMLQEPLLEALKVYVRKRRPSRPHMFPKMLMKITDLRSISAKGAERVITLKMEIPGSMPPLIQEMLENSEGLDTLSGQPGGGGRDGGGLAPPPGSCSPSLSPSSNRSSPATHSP
Sequence of UniProt P03372 (P03372 whole entry, looked up, the tested form may be a part): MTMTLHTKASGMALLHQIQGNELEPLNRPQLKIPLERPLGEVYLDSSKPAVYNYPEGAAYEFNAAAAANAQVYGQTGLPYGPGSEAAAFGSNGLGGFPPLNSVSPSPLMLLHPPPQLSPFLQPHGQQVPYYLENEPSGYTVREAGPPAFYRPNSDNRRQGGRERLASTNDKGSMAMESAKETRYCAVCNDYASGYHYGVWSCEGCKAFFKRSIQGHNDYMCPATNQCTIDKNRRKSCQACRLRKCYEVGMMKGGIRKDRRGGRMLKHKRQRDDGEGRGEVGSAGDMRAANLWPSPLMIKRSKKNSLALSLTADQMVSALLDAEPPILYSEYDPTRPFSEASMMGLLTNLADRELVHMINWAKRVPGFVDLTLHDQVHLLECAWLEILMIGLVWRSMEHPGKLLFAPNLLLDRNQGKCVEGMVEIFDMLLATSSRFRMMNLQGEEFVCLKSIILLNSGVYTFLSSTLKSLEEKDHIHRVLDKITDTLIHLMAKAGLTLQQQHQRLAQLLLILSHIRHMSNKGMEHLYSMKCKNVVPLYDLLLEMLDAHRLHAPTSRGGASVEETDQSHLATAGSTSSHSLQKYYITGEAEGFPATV

Consider `C[C@]12C[C@H](O)[C@H]3[C@@H](CCC4=CC(=O)CC[C@@]43C)[C@@H]1CC[C@@H]2C(=O)CO`, for which the AC50 result in assay [1] was “active: 76.5, 41.7, 41.2, 6.18 µM [separate samples]”; in [2] it was “active: 4.16, 18, 2.29, 4.01 nM [separate samples]”; in assay [3] it was “active: 16.6, 5.05, 3.3, 5.62 nM [separate samples]”.

Turning to `CC(C)(c1ccc(O)cc1)c1ccc(O)cc1`, the AC50 result is “active: 934 nM, 347 nM, 859 nM, 370 nM, 380 nM, 818 nM, 1.09 µM, 815 nM, 472 nM [separate samples]” in assay [4]; “active: 26.7 µM, 25.5 µM, 2.41 µM, 292 nM [separate samples]” in assay [5]; “active: 262 nM, 513 nM, 363 nM, 383 nM, 320 nM, 98.8 nM, 456 nM, 293 nM, 42.1 µM [separate samples]” in assay [1]; “active: 7.46, 27.6, 5.52, 22.2 µM [separate samples]” in [6]; “active: 3.43, 4.1, 4.48, 6.22, 4.61, 1.74, 5.8, 1.97 µM [separate samples]” in [7]; “active: 64.4, 66, 36.3, 29.1, 21, 50, 34.6 µM [separate samples]” in [8]. Further, the AC50 entry in assay [9] is “active: 79, 64.3, 81.7, 84.7, 73.4, 26.6, 69.7 µM [separate samples]”; in assay [10], “active: 151, 140, 101 (2×), 50.3, 50, 107 µM [separate samples]”; in assay [11], “active: 26.1, 57.8, 28.4, 27.5, 27.6, 17.9, 18.8, 34.7 µM [separate samples]”; in assay [12], “active: 4.04 µM, 4.45 µM, 3.58 µM, 4.66 µM, 5.59 µM, 671 nM, 13.7 µM, 1.27 µM [separate samples]”; in assay [13], “active: 1.24, 10.1, 39.2, 13.7 µM [separate samples]”; in assay [14] it was “active: 9.89, 2.49, 5.94, 7.28 µM [separate samples]”. Also, the AC50 entry in assay [15] was “active: 153 nM, 275 nM, 319 nM, 1.19 µM, 850 nM, 1.03 µM, 2.24 µM [separate samples]”; in assay [16], “active: 451 nM, 430 nM, 336 nM, 1.37 µM, 1.34 µM, 995 nM, 528 nM, 386 nM, 1.17 µM [separate samples]”; in assay [17], “active: 95.6, 91.3, 43.8, 65.4, 6.59, 84.2, 86.4, 80.4 µM [separate samples]”; in assay [18], “active: 31.4, 53.8 (4×), 33.6, 28.8, 11.1 µM [separate samples]”.

For `CCOC(=O)c1ccc(O)cc1`, the AC50 entry was “active: 42.6, 27.6, 44.5, 8.03 µM [separate samples]” in assay [1] and “active: 34.3, 27.5, 78.9, 7.82 µM [separate samples]” in assay [19].

One may read the AC50 as the midpoint of the concentration-response curve, whichever way the signal moves.

The values are drawn from PubChem BioAssay (EPA / NIEHS).
